{
  "source": "PubChem BioAssay (NCI)",
  "note": "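1) Cells in 96-well plates. 2) Compound, 48 h, 5 concentrations. 3) Linear interpolation between surrounding doses. 4) Unreached endpoint = highest concentration. The concentration for 50% growth inhibition is given as GI50. The concentration for full growth arrest is given as TGI.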",
  "data": [
    {"system": "NCI-H322M lung", "assay": "NCI anticancer screen, dose series, 48 h", "units": {"GI50": "µM", "TGI": "µM"}, "values": [
      {"compound": "O=C(Nc1ccc(I)cc1F)c1cc(-c2ccc(F)cc2F)ccc1O", "GI50": 3.6, "TGI": 77.7},
      {"compound": "N#C[Se]CC(=O)Nc1cccc(C(F)(F)F)c1", "GI50": 2.61, "TGI": 10.5},
      {"compound": "O=C(c1ccc(O)cc1)C1[C@H](c2ccccc2Br)[C@@H](c2ccccc2)NC12C(=O)Nc1ccc(Cl)cc12", "note": "(stereo not given in full)", "GI50": 5.98, "TGI": 12.5},
      {"compound": "CC1=C(COCCOC(=O)c2ccc(S(=O)(=O)F)cc2)C2=C(C)C3(CC3)[C@@](C)(O)C(=O)C2=C1", "GI50": 20.3, "TGI": 53.6},
      {"compound": "COc1ccc(-c2nc(S(=O)(=O)c3ccc(C)cc3)c(S(=O)(=O)CC(=O)N(C)Cc3ccccc3)o2)cc1", "GI50": 14, "TGI": 27}
    ]}
  ]
}
